Test results published in PubChem BioAssay AID686979 (National Center for Advancing Translational Sciences (NCATS), 2013).
About 50,000 (12%) of roughly 420,000 compounds were called active. This list was built around the results that the source calls inconclusive (neither active nor inactive); the mix of calls is not that of the screen. Calls follow the shape of the dose curve; as a rule, active = well fitted inhibition curve with a large enough effect; inconclusive = small, poorly fitted or top-dose-only effect; inactive = flat fitted curve, though single readings scatter. No potency is given beside an inconclusive call; the fits are too rough.

test: qHTS for Inhibitors of human tyrosyl-DNA phosphodiesterase 1 (TDP1): qHTS in cells in presence of CPT; details: chicken DT40 Tdp1-/-;hTDP1 cells + 20 nM CPT, ATP luminescence, 48 h; activity change, negative = growth inhibition: at 46.2 µM (top of the series) unless noted; also: nearly all actives have a fitted effect of over 55% in size
Outline: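 Cell growth measured by CellTiter-Glo luminescence after a minimum 48 h, 37 C compound exposure with 20 nM CPT in Tdp1-knockout DT40 cells stably expressing hTDP1, seeded 400/well; qHTS titration format.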
% is scaled to controls: 0 for no effect and ±100 for the full control effect; potency is read from the fitted curve at half-maximal effect; tags tell the direction and shape of the fitted curve.

| SMILES | Potency | activity change, negative = growth inhibition |
| --- | --- | --- |
| O=C(NC1CC(=O)N(c2cccc(F)c2)C1)c1ccc(S(=O)(=O)N2CCCC2)cc1 (stereo unspecified) | inconclusive [inhibitor, partial curve] |  |
| O=C(CCc1nc(-c2cccs2)no1)Nc1ccccc1[N+](=O)[O-] |  | inactive: -7.92% |
| Cc1ccn2c(=O)c(C(=O)NCCc3ccccc3)c(O)nc2c1 | inconclusive [inhibitor, partial curve] |  |
| CCCn1nc(C(=O)N2CC(=O)Nc3ccccc32)c2ccccc2c1=O | active: 20.6 µM |  |
| O=C(C[n+]1c(Cl)cc(Cl)c2ccccc21)c1ccccc1 | active: 4.47 µM |  |
| Cc1ccc(C(=O)NNC(=O)CSc2nnc(-c3ccccc3)n2Cc2ccccc2)cc1 | inconclusive [inhibitor, single point] |  |
| C/C(=N/NC(=O)c1ccc(-c2ccccc2)cc1)c1cccc(O)c1 |  | inactive: -16.8% |
| CCCCCc1cc[n+](CC(=O)c2ccccc2)cc1 | inconclusive [inhibitor, single point] |  |
| O=c1cc(-c2cccc(O)c2)oc2ccc(O)cc12 | inconclusive [inhibitor, full curve, poor fit] |  |
| CCOc1ccccc1CNC(=O)Cn1c(-c2ccccc2)cc(C(C)=O)c1C | active: 13 µM |  |
| COc1ccc(N2CCN(C(=O)COC(=O)CCOc3ccc(C(C)(C)C)cc3)CC2)cc1 | inconclusive [inhibitor, partial curve, poor fit] |  |
| CCCCN1CC(N2CCN(C)CC2)CS1(=O)=O (stereo unspecified) |  | inactive: -15.6% |
| O=C(N/N=C/c1ccccn1)c1ccco1 |  | inactive: -8.73% |
| CC1CCN(C(=S)Nc2cccc(S(=O)(=O)N(C)C)c2)CC1 | inconclusive [inhibitor, partial curve] |  |
| CCOC(=O)N1CCc2[nH]c3ccc(C)cc3c2C1 | active: 14.6 µM |  |
| COc1cc(C(O)c2nc(-c3ccc(F)cc3OC)cs2)ccc1F (stereo unspecified) | inconclusive [inhibitor, single point] |  |
| COc1ccc(NC(=S)NCCc2c[nH]c3ccc(OC)cc23)c(OC)c1 | inconclusive [inhibitor, partial curve, poor fit] |  |
| Cc1cc(C)n(-c2ccc(C(=O)NCC(c3ccco3)N3CCCC3)cc2)n1 (stereo unspecified) |  | inconclusive: -30.2% [inhibitor] |
| Cc1cc(C(=O)N/N=C/c2ccc(-c3cccc(Cl)c3Cl)o2)n[nH]1 | inconclusive [inhibitor, partial curve] |  |
| O=C(N/N=C/c1sc(=O)n(-c2ccccc2)c1Cl)c1ccncc1 | inconclusive [inhibitor, single point] |  |
| O=c1c2cc(NC(=S)NC3CCN(Cc4ccccc4)CC3)ccc2nc2n1CCCCC2 | inconclusive [inhibitor, single point] |  |
| CCCC#Cc1ccc2c(c1)O[C@@H](CN(C)Cc1ccc3c(c1)OCO3)[C@H](C)CN([C@@H](C)CO)S2(=O)=O | active: 7.31 µM |  |
| COc1cc(/C=N/NC(=O)c2c(-c3ccccc3)noc2C)cc(OC)c1OC |  | inconclusive: -36.5% [inhibitor] |

| SMILES | Potency | activity change, negative = growth inhibition |
| --- | --- | --- |
| c1ccc(-n2ncc3c2ncn2nc(-c4ccco4)nc32)cc1 | inconclusive [inhibitor, partial curve] |  |
| CCN(CC)c1cc(C)c2cc(NC(=O)c3cccc(F)c3)ccc2n1 | inconclusive [inhibitor, single point] |  |
| COc1cccc(OCc2cc(C(=O)N3CCNC(=O)C3Cc3ccccc3)no2)c1 (stereo unspecified) | inconclusive [inhibitor, single point] |  |
| CC(=O)c1ccc(NC(=O)CN2C(=O)NC3(CCc4ccccc43)C2=O)cc1 (stereo unspecified) |  | inactive: -11.1% |
| CC(=O)OCC(=O)Nc1c(C)cc(C)cc1C |  | inconclusive: -32.4% [inhibitor] |
| COc1ccccc1NC(=O)CSc1nc2ccccc2nc1N1CC(C)OC(C)C1 (stereo unspecified) | active: 20.6 µM |  |
| C=CCOc1cccc(C2c3c(oc4ccccc4c3=O)C(=O)N2c2ccccn2)c1 (stereo unspecified) | inconclusive [inhibitor, single point] |  |
| O=C(Nc1cccc(Cl)c1)N1CCSc2ccccc21 | inconclusive [inhibitor, partial curve] |  |
| CCc1ccc(NC(=O)Nc2ccc3c(c2)N(C)C(=O)CS3)cc1 | inconclusive [inhibitor, single point] |  |
| Cc1cc(C)n(CC(O)Cn2c3ccccc3c3ccccc32)n1 (stereo unspecified) |  | inactive: -12.9% |
| CCc1c(C(=O)NNC(=S)NCCc2ccccc2)csc1C | inconclusive [inhibitor, full curve, poor fit] |  |
| Cc1ccnc2nc(C(=O)OCC(=O)NC3CCC(C)CC3)nn12 (stereo unspecified) |  | inactive: -4.92% |
| COc1ccccc1N1CCN(c2ncnc3sc(C(=O)NCC4CCCO4)c(C)c23)CC1 (stereo unspecified) | inconclusive [inhibitor, single point] |  |
| COc1ccc(C)cc1Nc1nc(N)c2ccccc2n1 | inconclusive [inhibitor, partial curve, poor fit] |  |
| Cc1ccc2[nH]c(C(=O)O)c(NC(=O)[C@@H]3C[C@@H]3c3ccccc3)c2c1 |  | inactive: -2.49% |
| CC(=O)N(C)c1ccc(NC(=O)COc2ccc(Br)cc2C)cc1 |  | inconclusive: -31.1% [inhibitor] |
| COc1ccc(OC)c(-c2cc(C(=O)NCCc3ccccc3)c3c(-c4ccc(C)cc4)[nH]nc3n2)c1 | active: 23.1 µM |  |
| O=C(N/N=C/c1ccc(Br)s1)c1ccncc1 | inconclusive [inhibitor, single point] |  |
| Cc1ccc2[nH]c(=O)c(CN(Cc3ccco3)C(=O)c3ccncc3)cc2c1 | active: 10.3 µM |  |
| COc1cccc(C2c3c(oc4ccc(Cl)cc4c3=O)C(=O)N2c2cc(C)on2)c1OC (stereo unspecified) | inconclusive [inhibitor, partial curve] |  |
| CCOC(=O)c1cnc2c(ccc3ccccc32)c1Nc1ccccc1OCC |  | inactive: 7.83% |
| Cc1cc2nc3c(nc2cc1C)C1(C(=O)N(C)C)CCC3(C)C1(C)C (stereo unspecified) |  | inconclusive: -30.3% [inhibitor] |
| COc1cc(C=NNc2nc3c([nH]2)c(=O)n(C)c(=O)n3C)ccc1O |  | inactive: 2.07% |
